Experimental data published in PubChem BioAssay AID686979 (National Center for Advancing Translational Sciences (NCATS), 2013).
In all, about 420,000 compounds went through this assay and about 50,000 (12%) were called active. Inconclusive means that the source gave no clear call. Such entries were picked first, then a sample of the others. The call rests on the fitted dose curve; in most records, active means well fitted inhibition curve with a large enough effect; inconclusive means small, poorly fitted or top-dose-only effect; inactive means flat fitted curve, though single readings scatter. No potency is given beside an inconclusive call; the fits are too rough.
On the % scale 0 is the no-effect control and ±100 the full control effect; potency means the concentration at half of the fitted maximal effect; tags describe the fitted curve by direction and shape.

Experiment: qHTS for Inhibitors of human tyrosyl-DNA phosphodiesterase 1 (TDP1): qHTS in cells in presence of CPT; further: nearly all actives have a fitted effect of over 55% in size
Conditions: chicken DT40 Tdp1-/-;hTDP1 cells + 20 nM CPT, ATP luminescence, 48 h; activity change, negative = growth inhibition: at 46.2 µM (top of the series) unless noted
Summary of the method: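 Chicken DT40 Tdp1-/- cells stably complemented with human TDP1 were seeded at 400 cells/well in medium containing 20 nM camptothecin, exposed to pin-transferred compounds, and grown at 37 °C for at least 48 hr. Viability was read as ATP luminescence.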
In the case of CN(C)CCNc1nc(Oc2cccc(F)c2)c2sccc2n1, the Potency is reported as inconclusive [inhibitor, single point].
With C=CCSc1nnc(CCc2ccccc2)n1N the “activity change, negative = growth inhibition” value was inactive: -5.98%.
For O=C(Nc1ccc(F)cc1)C(c1ccccc1OC(F)(F)F)N1CCN(c2cccc(C(F)(F)F)n2)CC1 (centres undefined), the Potency was inconclusive [inhibitor, partial curve, poor fit].
With CC1(C)Cc2c(sc(NC(=O)COc3cccc4ccccc34)c2C#N)C(C)(C)N1 the Potency was active: 10.3 µM.
For Cc1ccc(C(=O)Nc2cc(=O)n(C)c(=O)n2C)o1, the “activity change, negative = growth inhibition” value was inactive: 2.33%.
For O=C(Nc1cc(Br)ccc1O)c1cc(-c2ccco2)on1, the “activity change, negative = growth inhibition” value was inactive: -2.26%.
With CCc1nnc(NC(=O)c2ccc(Br)c(S(=O)(=O)N3CCOCC3)c2)s1 the “activity change, negative = growth inhibition” value was inactive: -9.14%.
In the case of Cc1ccc(-n2c(O)c(/C=N/NC(=O)C3COc4ccccc4O3)c3ccccc3c2=O)cc1 (centres undefined), the Potency is reported as inconclusive [inhibitor, single point].
With CCN(CC)C(=O)C1=C(C)Nc2nnnn2C1c1cccnc1 (centres undefined) the “activity change, negative = growth inhibition” value was inactive: 7.03%.
For N#CC1=C(N)C(C#N)(C#N)C(c2ccc[nH]2)C2CCCC=C12 (centres undefined), the Potency was inconclusive [inhibitor, single point].
In the case of CCCc1c(C)nc(N2CCN(c3ccccc3F)CC2)[nH]c1=O, the “activity change, negative = growth inhibition” value is reported as inactive: -21.5%.
With CC(C)(C)CC(=O)Nc1ccccc1N1CCN(c2ccc(F)cc2)CC1 the Potency was inconclusive [inhibitor, single point].
In the case of COc1ccc(C2CC(c3cccs3)=NN2C(=O)CSc2nc(=O)n3ccc(C)cc3n2)cc1 (centres undefined), the Potency is reported as inconclusive [inhibitor, single point].
With Cc1ccc(-c2nnc(N3CCN(C(=O)c4ccco4)CC3)c3ccccc23)cc1 the Potency was active: 20.6 µM.
For COCCNC(=O)C1(C)CCN(Cc2ccc3ccccc3c2Br)C1 (centres undefined), the Potency was active: 29.1 µM.
In the case of CN(C(=O)CN1C(=O)S/C(=C\c2ccccc2)C1=O)C1CCS(=O)(=O)C1 (centres undefined), the “activity change, negative = growth inhibition” value is reported as inactive: 15.7%.
For Cc1c(Cc2c(Cl)cccc2Cl)c(=O)ccn1C(C)c1ccccc1 (centres undefined), the Potency was inconclusive [inhibitor, partial curve, poor fit].
In the case of CCOc1cc2[nH]c(=O)n(Cc3ccc(C(=O)NCCCN4CCC(C)CC4)cc3)c(=O)c2cc1OCC, the Potency is reported as inconclusive [inhibitor, single point].
In the case of CN1CC2([N+](=O)[O-])CC=C(OCCO)C([N+](=O)[O-])(C1)C2 (centres undefined), the “activity change, negative = growth inhibition” value is reported as inactive: 4.6%.
With Cc1cccc(NC(=S)NNC(=S)NCc2ccccc2)c1 the “activity change, negative = growth inhibition” value was inactive: -10.1%.
For CCOc1ccc(NC(=O)C(CC)n2nc(-c3ccc(C)c(C)c3)ccc2=O)cc1 (centres undefined), the Potency was inconclusive [inhibitor, single point].
In the case of CCOc1ccc(OCC)c(NC(=O)CN(c2ccc(C)cc2)S(=O)(=O)c2c(C)n[nH]c2C)c1, the Potency is reported as inconclusive [inhibitor, single point].
With CCOC(=O)[C@]12CCCC=C1N(CCC1=CCCCC1)C(=O)[C@H](CC(=O)NCCCN1CCCC1=O)C2 the activity change, negative = growth inhibition was inconclusive: -32.6% [inhibitor].
In the case of CC(=O)NC(c1ccccc1)c1c(O)ccc2ccccc12 (centres undefined), the Potency is reported as inconclusive [inhibitor, single point].
In the case of Cc1cc(C)c(C(=O)NC2CC(C)(C)Cc3c2cnn3-c2cccc(F)c2)[nH]1 (centres undefined), the Potency is reported as inconclusive [inhibitor, single point].
In the case of CO/N=C/CC(=O)c1ccc(OC)cc1, the Potency is reported as inconclusive [inhibitor, single point].
With CN1C(=O)NC(c2ccc(O)cc2)C2=C1CN(c1ccccc1)C2=O (centres undefined) the Potency was inconclusive [inhibitor, single point].
In the case of CC(C)c1nc2cc(C(=O)NC(c3cccnc3)C(F)(F)F)ccc2o1 (centres undefined), the Potency is reported as inconclusive [inhibitor, single point].
For CN(C)S(=O)(=O)c1ccc(Cl)c(C(=O)NC2CCCCCCC2)c1, the Potency was inconclusive [inhibitor, partial curve].
In the case of COc1ccc(C(=O)NC(c2ccc(OC)c(OC)c2)c2cc(Cl)c3cccnc3c2O)cc1 (centres undefined), the Potency is reported as active: 5.01 µM.
For Cn1cccc1Cc1nnc(SCC(=O)N2CCCC2)n1CCc1ccccc1, the Potency was inconclusive [inhibitor, partial curve].
With CCOC(=O)c1c(C)[nH]c(C)c1S(=O)(=O)NCCN1CCN(c2cc(Cl)ccc2C)CC1 the Potency was inconclusive [inhibitor, single point].
With Cc1ccc(OCCN(C)C(=O)c2cc(COc3ccc(F)cc3F)on2)cc1 the “activity change, negative = growth inhibition” value was inactive: -24%.
In the case of CCN(CC)CCN1C(=O)c2ccccc2NC1c1ccc(F)cc1 (centres undefined), the “activity change, negative = growth inhibition” value is reported as inactive: -5.09%.
With Cc1ccc(-c2cc(C(=O)NCC3CCCO3)no2)cc1 (centres undefined) the activity change, negative = growth inhibition was inconclusive: -30.7% [inhibitor].
With COc1ccccc1N1CCN(C(c2ccccc2)c2nnc(-c3ccccc3Cl)o2)CC1 (centres undefined) the Potency was active: 29.1 µM.
With COc1cccc(-c2cc(C(=O)N3CC4(C)CC3CC(C)(C)C4)no2)c1 (centres undefined) the Potency was inconclusive [inhibitor, single point].
In the case of CC1(Oc2ccc3ccccc3c2)CCN(Cc2cccn2-c2nccs2)C1 (centres undefined), the Potency is reported as active: 29.1 µM.
In the case of Cc1ccc(-c2csc3ncnc(Sc4nnnn4C4CC4)c23)cc1, the Potency is reported as active: 10 µM.
With CCC1Nc2ncnc(N3CCOCC3)c2N(Cc2ccc(C)cc2)C1=O (centres undefined) the “activity change, negative = growth inhibition” value was inactive: -0.493%.
For CCOc1ccc(S(=O)(=O)Nc2ccc(S(=O)(=O)N3CCCC3)cc2)cc1, the “activity change, negative = growth inhibition” value was inactive: 2.55%.
In the case of COC1=CC(C)C2CC3OC(=O)CC4C(C)=C(OC)C(=O)C([C@]2(C)C1=O)[C@]34C (some centres undefined), the “activity change, negative = growth inhibition” value is reported as inactive: 18.5%.
For O=C(N/N=C\c1ccccn1)C1COc2cc3ccccc3cc2O1 (centres undefined), the Potency was inconclusive [inhibitor, single point].
For O=C(c1ccc2c(c1)N(Cc1ccccc1F)C(=O)c1ccccc1S2(=O)=O)N1CCCCCC1, the Potency was inconclusive [inhibitor, single point].
For CCCNC(=O)c1cc2n(n1)CCCN(Cc1ccc(F)cc1)C2=O, the “activity change, negative = growth inhibition” value was inactive: -0.0361%.
In the case of COc1ccc(N2CCN(CC(=O)c3c(C)n(C)c4ccc(OC)cc34)CC2)cc1, the Potency is reported as active: 18.4 µM.
With COc1cccc(CNC(=O)C2CCN(Cc3cnn(-c4ccccc4)c3-n3cccc3)CC2)c1 the Potency was inconclusive [inhibitor, single point].
In the case of CCOC(=O)C1=C(COC(=O)c2cccc(Cl)c2)NC(=O)NC1C (centres undefined), the “activity change, negative = growth inhibition” value is reported as inactive: -0.154%.
For CC1(C)Cc2c(cnn2-c2ccc(F)cc2)C(NC(=O)C2CCC2)C1 (centres undefined), the Potency was inconclusive [inhibitor, partial curve].
With Cc1ccc(Cl)cc1N1C(=O)CC(C)(C)CC1=O the “activity change, negative = growth inhibition” value was inactive: -15%.
With CC1CCCC(C)N1C(=O)CSc1nc2c(c(=O)n(C)c(=O)n2C)n1C (centres undefined) the “activity change, negative = growth inhibition” value was inactive: 2.38%.
With COc1ccc2nc(Nc3nc(C)c(C(C)=O)s3)sc2c1 the Potency was inconclusive [inhibitor, single point].
With COc1ccc(OC)c(N(CC(=O)Nc2ccccc2F)S(=O)(=O)c2ccccc2)c1 the “activity change, negative = growth inhibition” value was inactive: -3.19%.
With CCOC(=O)C(C)Sc1nc2c(cnn2-c2ccc(F)cc2)c(=O)[nH]1 (centres undefined) the Potency was active: 20.6 µM.
With Cc1cc(NC(=O)Nc2cccc(C(F)(F)F)c2)no1 the “activity change, negative = growth inhibition” value was inactive: -4.09%.
In the case of CCc1nc2ccc(C(=O)NCCCn3ccnc3)cn2c1N(C)Cc1cc2ccccc2s1, the Potency is reported as inconclusive [inhibitor, single point].
In the case of CC(C)NC(=O)NNC(=O)Cn1nnc(-c2cccc(Cl)c2Cl)n1, the “activity change, negative = growth inhibition” value is reported as inactive: 1.48%.
In the case of Cc1ccc(C)c(Cn2c(=O)n(-c3ccc(CC(=O)NCc4ccco4)cc3)c(=O)c3sccc32)c1, the Potency is reported as inconclusive [inhibitor, partial curve].
For Cc1ccc(CN2CCN(Cc3ccc(O)cc3)CC2CCO)o1 (centres undefined), the “activity change, negative = growth inhibition” value was inactive: 19.5%.
For COc1ccc(S(=O)(=O)Nc2cc(C(=O)NC3CCCCCC3)ccc2N2CCOCC2)cc1, the Potency was inconclusive [inhibitor, single point].
In the case of CCOc1ccc(CCNC(=O)c2ccc(Cn3c(=O)c4cccn4c4cccnc43)cc2)cc1, the Potency is reported as active: 13 µM.
With C=CCCN(C(C(=O)OC)C(C)C)S(=O)(=O)c1ccccc1Br (centres undefined) the Potency was inconclusive [inhibitor, single point].
With COc1ccc(-c2csc3ncnc(Nc4ccc(OC)c(OC)c4)c23)cc1 the Potency was inconclusive [inhibitor, single point].
In the case of Cc1ccc(CN2CCNC(=O)C2CC(=O)N(C)C(C2CC2)C2CC2)o1 (centres undefined), the “activity change, negative = growth inhibition” value is reported as inactive: -21.2%.
In the case of C=CCN1C(=O)C(CCCC)NC1=S (centres undefined), the “activity change, negative = growth inhibition” value is reported as inactive: 4.83%.
With Fc1ccc(-c2ccnc3nc(N4CCN(c5ccccc5)CC4)nn23)cc1 the “activity change, negative = growth inhibition” value was inactive: -1.97%.
In the case of COC(=O)[C@@]12C[C@@H](CC(=O)NCc3cccc4ccccc34)C(=O)N(Cc3ccc4c(c3)OCO4)C1=CCC(C)(C)C2, the Potency is reported as inconclusive [inhibitor, partial curve, poor fit].
With CCN(C(=O)Cn1c(SCc2ccccc2F)nc2cccnc21)c1ccccc1 the Potency was inconclusive [inhibitor, single point].
For CCOc1cc(C(=O)N=c2sccn2C)cc(Br)c1OC, the Potency was active: 18.4 µM.
With Cc1ccccc1-c1cc2nc(NCCOc3ccccc3)n(C)c(=O)c2s1 the Potency was inconclusive [inhibitor, single point].
In the case of Cc1cc(C)c2nc(SCC(=O)Nc3cc(C)on3)c(C)cc2c1, the “activity change, negative = growth inhibition” value is reported as inactive: -17.2%.
For O=C(CC(c1ccccc1)c1ccccc1)NCCO, the “activity change, negative = growth inhibition” value was inactive: -16.6%.
For O=C(Nc1c(Cl)cc2c(c1Cl)Cc1cc([N+](=O)[O-])ccc1-2)C(Cl)Cl, the Potency was inconclusive [inhibitor, single point].
For COc1cc(OC)cc(C(=O)N[C@H](C(=O)Nc2nc3ccccc3[nH]2)C(C)C)c1, the Potency was active: 1.64 µM.
